B1: GPR68, Q15743 (parent)
chain: MGNITADNSSMSCTIDHTIHQTLAPVVYVTVLVVGFPANCLSLYFGYLQIKARNELGVYLCNLTVADLFYICSLPFWLQYVLQHDNWSHGDLSCQVCGILLYENIYISVGFLCCISVDRYLAVAHPFRFHQFRTLKAAVGVSVVIWAKELLTSIYFLMHEEVIEDENQHRVCFEHYPIQAWQRAINYYRFLVGFLFPICLLLASYQGILRAVRRSHGTQKSRKDQIQRLVLSTVVIFLACFLPYHVLLLVRSVWEASCDFAKGVFNAYHFSLLLTSFNCVADPVLYCFVSETTHRDLARLRGACLAFLTCSRTGRAREAYPLGAPEASGKSGAQGEEPELLTKLHPAFQTPNSPGSGGFPTGRLA

The variants in series [1] derive from B1. Description: cAMP reporter score (Enrich2 score, wild type = 0); higher = more signal; HEK293T, FACS bins.
Variants of B1 are the subject of series [2]. Put plainly: surface expression score (Enrich2 score, wild type = 0); higher = more signal; HEK293T, FACS bins.

The values that follow come from the GPR68 mutational scans of Howard et al. (2025).

Scores with a large standard error are left out. Not listed are two conditions whose scores span a narrow range. In variant names, del marks residues removed and ins residues inserted between the two positions. For part of these data: How much ogerin was present is not stated here.

Take I198L: the cAMP reporter score was -0.012 in series [1] (pH 5.5); 0.465 in series [1] (pH 6); 0.325 in series [1] (pH 6, modulator: ogerin); -0.769 in series [1] (pH 6.5, modulator: ogerin). In series [2], the surface expression score was determined as 0.96.
Turning to I198Y, the cAMP reporter score in series [1] (pH 5.5) is -0.313; in series [1] (pH 6) it was -0.373; in series [1] (pH 6, modulator: ogerin) it was 1.41. The surface expression score in series [2] is -0.379.
Consider I198R, for which the cAMP reporter score was -0.962 in series [1] (pH 5.5); -1.99 in series [1] (pH 6); -1.07 in series [1] (pH 6.5, modulator: ogerin). Further, the surface expression score in series [2] was -1.74.
As for I198C, the cAMP reporter score turned out to be 1.16 in series [1] (pH 5.5); 1.55 in series [1] (pH 6, modulator: ogerin); 3.2 in series [1] (pH 6.5, modulator: ogerin). The surface expression score in series [2] came out at 0.764.
As to I198F, the cAMP reporter score in series [1] (pH 5.5) was 0.017; in series [1] (pH 6), -0.51; in series [1] (pH 6, modulator: ogerin) it was 0.022; in series [1] (pH 6.5, modulator: ogerin) it was -0.289. Also, the surface expression score in series [2] was found to be 1.43.
The like results for I198H were, in that order, -0.822, -1.56, -1.43, -1.22 and -2.02.
As to I198W, the cAMP reporter score in series [1] (pH 5.5) is -0.161; in series [1] (pH 6, modulator: ogerin), -0.94; in series [1] (pH 6.5, modulator: ogerin), -0.525. Besides, in series [2], the surface expression score is -0.702.
As for I198D, the cAMP reporter score in series [1] (pH 5.5) was -0.414; in series [1] (pH 6), -0.517; in series [1] (pH 6.5, modulator: ogerin), -0.397.
Take I198P: the cAMP reporter score in series [1] (pH 5.5) is -0.426; in series [1] (pH 6), -0.232; in series [1] (pH 6.5, modulator: ogerin), -0.434. The surface expression score in series [2] worked out at 0.737.
With F190_V192del, the cAMP reporter score was -2.1 in series [1] (pH 5.5); -0.981 in series [1] (pH 6); -0.658 in series [1] (pH 6, modulator: ogerin); -1.85 in series [1] (pH 6.5, modulator: ogerin).
For F196_I198del, the cAMP reporter score in series [1] (pH 5.5) is -1.54; in series [1] (pH 6.5, modulator: ogerin) it was -1.81. Besides, in series [2], the surface expression score was -2.81.
Consider L191_V192insG, for which the cAMP reporter score was -1.42 in series [1] (pH 5.5); -2.17 in series [1] (pH 6); -2.13 in series [1] (pH 6, modulator: ogerin); -1.75 in series [1] (pH 6.5, modulator: ogerin). For the same variant, in series [2], the surface expression score is -2.92.
For the variant L191_G193del, the cAMP reporter score was -1.06 in series [1] (pH 5.5); -0.924 in series [1] (pH 6); -2.31 in series [1] (pH 6, modulator: ogerin); -0.266 in series [1] (pH 6.5, modulator: ogerin). Further, the surface expression score in series [2] was -2.94.
With I185Y, the cAMP reporter score was -0.839 in series [1] (pH 5.5); -1.02 in series [1] (pH 6); -1.39 in series [1] (pH 6, modulator: ogerin); -1.66 in series [1] (pH 6.5, modulator: ogerin). Further, in series [2], the surface expression score was -0.335.
As for I185T, the cAMP reporter score is 0.099 in series [1] (pH 5.5); -0.209 in series [1] (pH 6); -0.706 in series [1] (pH 6, modulator: ogerin); -0.938 in series [1] (pH 6.5, modulator: ogerin). The surface expression score in series [2] turned out to be 0.638.
I185W: the cAMP reporter score in series [1] (pH 5.5) was 0.958; in series [1] (pH 6.5, modulator: ogerin), -0.587. In addition, the surface expression score in series [2] turned out to be 2.73.
On to I185V, for which the cAMP reporter score in series [1] (pH 5.5) is 0.666; in series [1] (pH 6), -0.943; in series [1] (pH 6, modulator: ogerin) it was 0.566; in series [1] (pH 6.5, modulator: ogerin), -0.706. Besides, in series [2], the surface expression score worked out at 1.21.
For P197_I198insGS the same measures were -1.66, -1.48, -2.07, -1.59 and -2.91.
Regarding V192_G193insGS, the cAMP reporter score in series [1] (pH 5.5) is -1.56; in series [1] (pH 6, modulator: ogerin), -2.59; in series [1] (pH 6.5, modulator: ogerin) it was -0.216. For the same variant, the surface expression score in series [2] was -1.95.
Consider F194_L195del, for which the cAMP reporter score in series [1] (pH 5.5) is -1.66; in series [1] (pH 6), -0.6; in series [1] (pH 6, modulator: ogerin), -1.08; in series [1] (pH 6.5, modulator: ogerin), -0.552. The surface expression score in series [2] was -1.73.
As to I185_Y187del, the cAMP reporter score in series [1] (pH 5.5) was -1.49; in series [1] (pH 6) it was -1.32; in series [1] (pH 6, modulator: ogerin) it was -1.28; in series [1] (pH 6.5, modulator: ogerin) it was -1.32. The surface expression score in series [2] was -2.33.
Take G193del: the cAMP reporter score in series [1] (pH 5.5) was -0.291; in series [1] (pH 6), 1.33; in series [1] (pH 6, modulator: ogerin), -2.86; in series [1] (pH 6.5, modulator: ogerin), -1.07. Further, in series [2], the surface expression score was -2.15.
On to R189_F190insG, for which the cAMP reporter score in series [1] (pH 5.5) was -1.42; in series [1] (pH 6), -0.391; in series [1] (pH 6.5, modulator: ogerin), -1.95. In series [2], the surface expression score is -3.16.
On to Y187_Y188insGS, for which the cAMP reporter score in series [1] (pH 5.5) was -1.3; in series [1] (pH 6), -0.664; in series [1] (pH 6, modulator: ogerin) it was -1.62; in series [1] (pH 6.5, modulator: ogerin), -1.11. The surface expression score in series [2] was -2.13.
F194_L195insGSG: the cAMP reporter score is -0.668 in series [1] (pH 5.5); -0.79 in series [1] (pH 6); -1.32 in series [1] (pH 6, modulator: ogerin); -0.923 in series [1] (pH 6.5, modulator: ogerin). Also, in series [2], the surface expression score was -2.18.
The like results for F196_P197insGSG were, in that order, -1.2, -1.52, -1.61, -1.52 and -3.03.
The like results for Y188_R189insGS were, in that order, -1.28, -1.44, -1.35, -1.4 and -2.41.
Regarding I185_N186del, the cAMP reporter score in series [1] (pH 5.5) is -0.588; in series [1] (pH 6, modulator: ogerin), -0.263; in series [1] (pH 6.5, modulator: ogerin) it was -2.2. In addition, in series [2], the surface expression score was -2.02.
For Y188T, the cAMP reporter score is -0.48 in series [1] (pH 5.5); 0.815 in series [1] (pH 6); -0.653 in series [1] (pH 6, modulator: ogerin); -0.371 in series [1] (pH 6.5, modulator: ogerin). Further, the surface expression score in series [2] was -0.288.
Consider Y188A, for which the cAMP reporter score in series [1] (pH 5.5) was 1.12; in series [1] (pH 6) it was 1.58; in series [1] (pH 6, modulator: ogerin), -0.099; in series [1] (pH 6.5, modulator: ogerin) it was -0.61.
Take Y188E: the cAMP reporter score is 0.104 in series [1] (pH 5.5); -0.054 in series [1] (pH 6, modulator: ogerin); 4.68 in series [1] (pH 6.5, modulator: ogerin). For the same variant, the surface expression score in series [2] was -0.397.
On to Y188P, for which the cAMP reporter score is -1.2 in series [1] (pH 5.5); -1.51 in series [1] (pH 6); -1.7 in series [1] (pH 6.5, modulator: ogerin). Further, in series [2], the surface expression score was -1.88.
Regarding Y188N, the cAMP reporter score was -0.485 in series [1] (pH 5.5); -0.477 in series [1] (pH 6); 0.317 in series [1] (pH 6, modulator: ogerin); -2.85 in series [1] (pH 6.5, modulator: ogerin). The surface expression score in series [2] is -0.798.
